Values of other authors, collected in patent US11529340B2 (priority 2016, dated 2022).

Tested on: mice
Settings: literature or earlier results; route as stated; cited from earlier work

With `CN1CC[C@]23c4c5ccc(O)c4O[C@H]2[C@@H](O)C=C[C@H]3[C@H]1C5` [morphine] as the compound, how does the “impairment of rotarod performance / motor function” value read?
The value was “significant and dose-related (albeit partial) impairment of motor function”.
